These results are taken from article PMC4336329 (PLoS ONE, 2015).

In all, about 310,000 compounds went through this assay and about 14,000 (4.5%) showed an effect of 50% or more. Effects have a minus sign here. This is one part of the list.
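Note: peak tail current of the secondary pulse compared with the same well before compound.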

In the assay the target is human ether-à-go-go-related gene (hERG) potassium channel (human, UniProt Q12809). Briefly: primary screen, population patch clamp on CHO cells stably expressing hERG.
Sequence of human ether-à-go-go-related gene (hERG) potassium channel (Q12809 whole entry, looked up): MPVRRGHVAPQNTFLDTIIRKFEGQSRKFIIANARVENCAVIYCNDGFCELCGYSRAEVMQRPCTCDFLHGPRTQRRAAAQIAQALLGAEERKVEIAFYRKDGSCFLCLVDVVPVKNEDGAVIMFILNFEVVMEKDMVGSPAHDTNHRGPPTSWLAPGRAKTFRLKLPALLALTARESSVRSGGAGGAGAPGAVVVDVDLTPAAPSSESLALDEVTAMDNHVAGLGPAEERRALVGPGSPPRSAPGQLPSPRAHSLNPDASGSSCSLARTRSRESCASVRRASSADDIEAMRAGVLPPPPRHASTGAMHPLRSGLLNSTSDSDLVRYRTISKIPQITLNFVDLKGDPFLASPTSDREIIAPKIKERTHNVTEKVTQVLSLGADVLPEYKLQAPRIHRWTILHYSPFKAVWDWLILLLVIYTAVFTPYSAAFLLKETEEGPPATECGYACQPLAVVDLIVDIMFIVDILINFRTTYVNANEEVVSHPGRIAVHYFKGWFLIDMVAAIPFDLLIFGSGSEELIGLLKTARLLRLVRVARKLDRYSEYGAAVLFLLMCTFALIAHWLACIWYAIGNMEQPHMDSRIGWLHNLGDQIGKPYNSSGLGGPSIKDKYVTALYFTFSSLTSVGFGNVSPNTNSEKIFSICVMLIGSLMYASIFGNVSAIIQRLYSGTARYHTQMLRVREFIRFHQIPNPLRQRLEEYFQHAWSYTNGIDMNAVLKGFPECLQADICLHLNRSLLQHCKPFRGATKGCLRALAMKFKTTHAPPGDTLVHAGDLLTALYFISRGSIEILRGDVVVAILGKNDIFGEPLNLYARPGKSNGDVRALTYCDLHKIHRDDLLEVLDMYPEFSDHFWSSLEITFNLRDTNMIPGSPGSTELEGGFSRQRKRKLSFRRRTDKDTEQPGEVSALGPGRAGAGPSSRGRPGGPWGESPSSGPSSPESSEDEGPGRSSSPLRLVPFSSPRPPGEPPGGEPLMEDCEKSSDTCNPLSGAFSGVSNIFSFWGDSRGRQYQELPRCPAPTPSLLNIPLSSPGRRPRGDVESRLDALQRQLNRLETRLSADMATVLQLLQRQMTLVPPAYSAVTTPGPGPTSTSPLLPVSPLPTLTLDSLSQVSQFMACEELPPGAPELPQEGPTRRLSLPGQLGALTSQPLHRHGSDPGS
On to `Cc1ccc2c(c1)C1CN(C)CCC1N2Sc1ccccc1[N+](=O)[O-]` (centres unmarked), for which the “hERG current change (%, negative = inhibition) at 10uM” value was -62.8%.

On to `CCOC(=O)C1CCN(Cc2nnc(-c3ccccc3C)o2)CC1.Cl`, for which the “hERG current change (%, negative = inhibition) at 10uM” value stood at 15.2%.

For the compound `CCOC(=O)c1c(-c2ccccc2)csc1/N=C/C1C(=O)CCCC1=O`, the “hERG current change (%, negative = inhibition) at 10uM” value was -8.46%. Next, `O=C(Cc1cccc2ccccc12)NNC(=O)c1ccc(Br)o1`: 0.907%. Turning to `COCC1CCCCN1C(=O)c1ccc(OC2CCN(Cc3ccccn3)CC2)cc1` (centres unmarked), the “hERG current change (%, negative = inhibition) at 10uM” value is given as 1.34%. The value for `Cc1cc(C)c2nc(N3CCN(C(=O)c4cccs4)CC3)sc2c1` was 0.575%; that for `CCn1c(SCC(=O)Nc2ccc(F)cc2F)nc2c(c1=O)SCC2` was -23%. The value for `CC(Oc1ccc(Cl)cc1Cl)C(=O)NC1=NN(c2ccccc2)C(=O)C1` (centres unmarked) was -7.88%; that for `CC(=O)c1cnc2cc(-c3ccc(C)cc3)nn2c1C` was -4.26%. `Cc1cccn2c(=O)c(/C=C(\C#N)C(=O)NCc3ccccc3)c(N3CCC(C(N)=O)CC3)nc12`: the “hERG current change (%, negative = inhibition) at 10uM” value was -29.1%.

Consider `CCC[C@@H](CNC)NC[C@H](Cc1ccccc1)NCCCCc1ccccc1`, for which the “hERG current change (%, negative = inhibition) at 10uM” value is recorded as -6.02%. Next, `Cc1cc(C(=O)Nc2c(C)nn(Cc3c(Cl)cccc3Cl)c2C)no1`: -0.0826%.

Turning to `COC(F)(C(=O)Nc1ccc2c(c1)C(=O)NC2=O)C(F)(F)F` (centres unmarked), the “hERG current change (%, negative = inhibition) at 10uM” value is -1.91%.

Take `CCC(=O)N1CCCc2cc(S(=O)(=O)N3CCN(c4ccccc4F)CC3)ccc21`: the “hERG current change (%, negative = inhibition) at 10uM” value is on record as -23.7%. In the case of `O=C(Nc1ccc(-c2cn3ccsc3n2)cc1)c1ccc(F)c(S(=O)(=O)N2CCOCC2)c1`, the “hERG current change (%, negative = inhibition) at 10uM” value is recorded as -22.1%. Next, `Cc1cccc(NC(=O)CCSc2ccccc2)c1C`: 5.59%; `CCc1cccc(CC)c1NC(=O)COC(=O)Cc1ccsc1`: 21.2%; `COc1cc(/C=C2\SC(=Nc3ccc(N4CCOCC4)cc3)N(C)C2=O)ccc1OC(C)C(=O)O` (centres unmarked): 16.9%. Next, `CCn1c(SCC(=O)N2CCCC2)nc2c(c1=O)SC(C)C2` (centres unmarked): 10.2%. Next, `CCOC(=O)C(CC)n1cnc2c(cnn2-c2ccc(Cl)cc2)c1=O` (centres unmarked): -25.1%; `O=C(CN(CCc1ccccc1)C(=O)CNS(=O)(=O)c1ccc(F)cc1)NCC1CCCO1` (centres unmarked): 0.652%. On to `CC1(C)COC(c2cccc(C3=NC(C)(C)CO3)n2)=N1`, for which the “hERG current change (%, negative = inhibition) at 10uM” value is recorded as 13%. Next, `CS(=O)(=O)N1CCc2cc(-c3csc(NC(=O)Cc4ccccc4)n3)ccc21`: 4.22%; `Cc1onc(-c2c(F)cccc2Cl)c1-c1nnc(-c2ccc(C(F)(F)F)cc2)o1`: -1.11%. For the compound `Cc1onc(-c2ccccc2Cl)c1C(=O)NCc1nc(-c2ccc(C(F)(F)F)cc2)no1`, the “hERG current change (%, negative = inhibition) at 10uM” value stood at 13.6%. Next, `CCOC(=O)C(NCCc1ccccc1)(NC(C)=O)C(F)(F)F` (centres unmarked): 11.3%; `CCOc1ccccc1NC(=O)c1cc(C(=O)c2cc(OC)ccc2O)coc1=N`: -20.3%; `COc1ccccc1C1CCN(Cc2cccc(C(=O)N3CCC(O)CC3)c2)CC1`: 19.3%. The value for `Cc1ccc(C)c(SCC(=O)NNC(=O)c2ccccc2)c1` was 9.78%; that for `O=C(CSc1nnc(-c2ccccn2)n1Cc1ccco1)Nc1ccc2c(c1)OCO2` was -16.4%; that for `CC(C(=O)c1ccc(-c2ccccc2)cc1)[n+]1cccc(C(N)=O)c1.[Br-]` (centres unmarked) was 21.8%. Take `CCC(C)c1ccc(OCc2ccc(C(=O)O)o2)cc1` (centres unmarked): the “hERG current change (%, negative = inhibition) at 10uM” value is reported as 3.32%.

Take `CN(C)c1nc(N)nc(Nc2ccccc2C#N)n1`: the “hERG current change (%, negative = inhibition) at 10uM” value is 11.3%.

With `CCN(CC)C(=O)C1CCCc2c1[nH]c1ccc(Cl)cc21` (centres unmarked), the “hERG current change (%, negative = inhibition) at 10uM” value is on record as -13.8%. The value for `CC(/C=N/N1CCN(Cc2ccccc2)CC1)=C\c1ccccc1` was 22.6%; that for `O=C(CSc1ncc(-c2ccccc2)[nH]1)Nc1ccccc1F` was -9.84%. Next, `CC(C)(C)NC(=O)C(c1ccncc1)N(C(=O)Cn1nnc(-c2ccc(F)cc2)n1)c1cccc(F)c1` (centres unmarked): 15.4%; `O=C(Nc1ccncc1)c1cc(S(=O)(=O)N2CCCCC2)ccc1Cl`: -56.2%; `C=CCOc1cccc(/C=N/NC(=O)C(OC)c2ccccc2)c1` (centres unmarked): 5.18%.

With `CCCCNC(=O)O[C@@H]1C[C@@H]2CCN3C(=O)CCC[C@H]([C@H]1CC)[C@H]23`, the “hERG current change (%, negative = inhibition) at 10uM” value is on record as 1.52%.

As to `Cc1cc(C)n(/N=C/c2c[nH]c3ccccc23)c(=O)c1C#N`, the “hERG current change (%, negative = inhibition) at 10uM” value stood at 2.66%.

In the case of `O=C(O)COc1ccc(-c2nc(-c3ccccc3)c(-c3ccccc3)[nH]2)cc1`, the “hERG current change (%, negative = inhibition) at 10uM” value is reported as 15.5%. Next, `CCOC(=O)c1cc(-c2ccccc2)nn1CC1CC(c2cccnc2)=NO1` (centres unmarked): 3.47%; `CNCC(O)c1cc(OCc2ccccc2)c(OCc2ccccc2)cc1F` (centres unmarked): -31.2%; `O=C(CSC(=S)N1CCCCC1)Nc1ncc2c(n1)CCCC2=O`: -11.7%. In the case of `Fc1ccc(-c2csc(=S)[nH]2)cc1`, the “hERG current change (%, negative = inhibition) at 10uM” value is reported as 11.1%. Consider `c1ccc(C2OCCN3CCCCC23)cc1` (centres unmarked), for which the “hERG current change (%, negative = inhibition) at 10uM” value is listed as -0.48%. Take `Cn1c(SCc2cc(=O)[nH]c3ccccc23)nnc1-c1ccco1`: the “hERG current change (%, negative = inhibition) at 10uM” value was found to be 19.7%. As to `COc1cccc(CNS(=O)(=O)c2ccc(N3CCCC3=O)cc2)c1`, the “hERG current change (%, negative = inhibition) at 10uM” value is -5.35%. The value for `O=C(NC1CCCC1)c1cc(-c2ccc(Cl)c(Cl)c2)on1` was 15.6%. The value for `CCN(CC)c1ccc(/C=N/NC(=O)OC)c(O)c1` was -9.74%; that for `CCCCn1nc2cc(C(=O)NCC3CC3)ccc2c1OCC` was -14.9%; that for `CCCOc1cccc(C(=O)NCCCNC(=O)c2ccccn2)c1` was 5.91%. The value for `O=C(Nc1cc2c(cc1Br)OCCO2)c1ccco1` was 33.1%. With `CS(=O)(=O)Nc1ccccc1C(=O)NCCSc1ccccc1`, the “hERG current change (%, negative = inhibition) at 10uM” value was determined as 7.72%. The value for `CCOC(=O)N1CCC(N(CCCOC)C(=O)Nc2ccc(CC)cc2)CC1` was -48.6%.
